From ChEMBL document CHEMBL4888484, “Replenishing the malaria drug discovery pipeline: Screening and hit evaluation of the MMV Hit Generation Library 1 (HGL1) against asexual blood stage Plasmodium falciparum ,using a nano luciferase reporter read-out” (2022)
Screen size: about 150,000 compounds; about 540 (0.36%) showed an effect of 50% or more. The list shows a part of the results.

These compounds were tested on Plasmodium falciparum (assay: Primary screen in NF54 nanoGlo assay, in single point, at 2uM, 72h; a lower Z score goes with more inhibition). Conditions: timepoint 72 hour.
Type: functional, Erythrocyte
With `C[C@@H](c1ccccc1)N1CC(CO)(CO)C1` the “% Inhibition” value was 2% and the Z score was -0.4.
For `CCC(C)C(NC(=O)C(C)Cc1cccs1)C(=O)O` (stereo unspecified), the “% Inhibition” value was -11% and the Z score was 1.51.
`Cc1nc(CCC(=O)N(C)Cc2csc(-c3ccccc3)n2)n[nH]1` was tested, and the “% Inhibition” value was 12% and the Z score was -1.58.
`O=C(Nc1cc(-c2cc(F)cc(Br)c2)[nH]n1)c1cccnc1` was tested, and the “% Inhibition” value was 2% and the Z score was -0.19.
`CC(=O)N1CCc2nc(CC3CC3)nc(NC[C@H]3CCCO3)c2CC1` was tested, and the “% Inhibition” value was -21% and the Z score was 2.14.
For `C#CCCC1(CCC(=O)N2CCCc3ccccc3CC2)N=N1`, the “% Inhibition” value was 9% and the Z score was -1.13.
For `COc1ccccc1NC(=O)Cn1c(C)cc2nc3n(c(=O)c21)CCCCC3`, the “% Inhibition” value was -4% and the Z score was 0.6.
In the case of `N#Cc1cccc(C2CCN(C(=O)CN3C(=O)c4ccccc4C3=O)CC2)c1`, the “% Inhibition” value is reported as -10% and the Z score is reported as 1.73.
`Cc1c(C(=O)NCc2ccccc2)c(C)n2cnn(CC(=O)Nc3ccc4c(c3)OCO4)c(=O)c12` was tested, and the “% Inhibition” value was -3% and the Z score was 0.5.
In the case of `COc1ccc(-c2c(-c3ccc(C)c(C)c3)[nH]c3c2c(=O)n(C)c(=O)n3C)cc1`, the “% Inhibition” value is reported as 11% and the Z score is reported as -1.64.
For `COc1ccccc1CN1C(=O)O[C@H]2CN(c3ncnc4[nH]cnc34)C[C@H]21`, the “% Inhibition” value was -5% and the Z score was 0.91.
With `O=C(c1cnc(Cc2ccccc2)s1)N1CCOC[C@@H]1CCO` the “% Inhibition” value was -7% and the Z score was 0.92.
`O=C1CC[C@H](N2CCOCC2)CCN1Cc1cccc(C(F)(F)F)c1` was tested, and the “% Inhibition” value was -6% and the Z score was 0.69.
In the case of `Cc1cc(C)cc(OCCCNCCO)c1`, the “% Inhibition” value is reported as -16% and the Z score is reported as 2.12.
With `C[C@@H](Cc1ccncc1)NC(=O)c1c[nH]c(=O)[nH]c1=O` the “% Inhibition” value was -9% and the Z score was 0.89.
`O=S(=O)(NCc1ccncc1OC[C@H]1CCOC1)c1ccc2[nH]nnc2c1` was tested, and the “% Inhibition” value was -9% and the Z score was 1.34.
For `c1csc(-c2nc(-c3ccc4c(c3)OCO4)no2)c1`, the “% Inhibition” value was -5% and the Z score was 0.97.
In the case of `Cc1nc(O)cc([C@H]2CCCN(C(=O)C3(c4ccccc4)CCCC3)C2)n1`, the “% Inhibition” value is reported as -3% and the Z score is reported as 0.39.
For `CCOc1ccccc1C(=O)NCc1ccnc(-c2cnn(C)c2)c1`, the “% Inhibition” value was -10% and the Z score was 1.59.
`CO[C@@]12CC[C@@H](OCC3CC3)C[C@@H]1N(c1ncnc(C)c1C)CC2` was tested, and the “% Inhibition” value was -10% and the Z score was 1.75.
`Cc1noc(C)c1CNC1CCN(C(=O)c2cccs2)CC1` was tested, and the “% Inhibition” value was -1% and the Z score was 0.29.
For `COC(=O)[C@H](C#N)c1ccc(C#N)cn1`, the “% Inhibition” value was 34% and the Z score was -0.65.
In the case of `CC(C)CCNC(=O)c1ccc2c(c1)nc1n2CC[C@H](C)C1`, the “% Inhibition” value is reported as -8% and the Z score is reported as 1.11.
`Cn1cnc2c1CCN(Cc1cnn(-c3ccccc3)n1)C2` was tested, and the “% Inhibition” value was -4% and the Z score was 0.58.
For `O=C(N[C@H]1CC[C@H](Nc2ccccn2)CC1)c1ccc(=O)[nH]n1`, the “% Inhibition” value was -1% and the Z score was 0.21.
`O=C([C@H](O)C1CCCCC1)N1CCc2[nH]c(-c3ccccc3)nc2C1` was tested, and the “% Inhibition” value was -1% and the Z score was 0.13.
With `O=S(=O)(c1cccc2nsnc12)N1CC(c2nc(CCOCC3CC3)no2)C1` the “% Inhibition” value was -15% and the Z score was 1.88.
In the case of `CC(C)CN(C(=O)CC1CC2CCC1C2)C1CC1` (stereo unspecified), the “% Inhibition” value is reported as -17% and the Z score is reported as 1.78.
`CNc1nc(N2CCN(CC3CC3)CC2)ncc1F` was tested, and the “% Inhibition” value was 9% and the Z score was -1.21.
`CN(C)c1ccc(-c2noc(CCN)n2)cc1` was tested, and the “% Inhibition” value was -18% and the Z score was 2.75.
In the case of `NC(=O)COc1ccc(S(=O)(=O)NC[C@H](O)c2csc3ccccc23)cc1`, the “% Inhibition” value is reported as -14% and the Z score is reported as 1.74.
With `COc1ccccc1C(=O)C(=O)NC1CC(C)(C)NC(C)(C)C1` the “% Inhibition” value was -6% and the Z score was 0.73.
In the case of `Cc1nccn1CCN(C)Cc1cc(C#CCO)cs1`, the “% Inhibition” value is reported as 3% and the Z score is reported as -0.44.
With `COc1ccc(CCN2CC(=O)N(c3ccccc3)C3CS(=O)(=O)CC32)cc1` (stereo unspecified) the “% Inhibition” value was -2% and the Z score was 0.25.
`COc1ccc(N2CCN(C(=O)/C(=C/c3ccccc3Cl)c3ccccc3)CC2)cc1` was tested, and the “% Inhibition” value was -15% and the Z score was 2.04.
`Cc1nc(N2CC[C@@H](O)C2)ncc1-c1cc2c(cc1CO)OCO2` was tested, and the “% Inhibition” value was -1% and the Z score was 0.13.
For `CCCNC(=O)N(C)CC(=O)N1N=C(c2ccc(C)c(C)c2)C[C@H]1c1ccc2c(c1)OCO2`, the “% Inhibition” value was -6% and the Z score was 0.71.
For `O=C(CCC1CCCCC1)N1CCN(c2cc(-n3ccnc3)ncn2)CC1`, the “% Inhibition” value was -13% and the Z score was 2.21.
For `O=C1NC2(CCCC2)C(=O)N1C[C@H](O)CN1CCOCC1`, the “% Inhibition” value was -11% and the Z score was 0.96.
With `CCn1cc(-c2nc(-c3ccccc3)no2)c(=O)c2cc(F)c(N3CCCCC3)cc21` the “% Inhibition” value was -9% and the Z score was 1.55.
In the case of `O=C(Nc1ccc(OC[C@H]2CCCCO2)cc1)N1CCOCC1`, the “% Inhibition” value is reported as -12% and the Z score is reported as 1.76.
With `CN1CCC(=C2c3cc(Cl)ccc3OCC2(C)C)CC1` the “% Inhibition” value was 0% and the Z score was -0.02.
`CN1CCN(C(=O)Cn2ccc(NC(=O)[C@H]3CC[C@@H](c4ccccc4)O3)n2)CC1` was tested, and the “% Inhibition” value was -4% and the Z score was 0.45.
For `CCn1cc(S(=O)(=O)N2CC[C@H](c3nc(CCOc4cccc(C)c4)no3)C2)cn1`, the “% Inhibition” value was -11% and the Z score was 1.34.
For `Cn1ccc(NC(=O)CCC2CCCCC2)n1`, the “% Inhibition” value was -3% and the Z score was 0.28.
`CNC(=O)[C@@H]1CCCCN1Cc1cc2cc(F)ccc2n1C` was tested, and the “% Inhibition” value was -20% and the Z score was 2.12.
In the case of `CN(C[C@H]1CCS(=O)(=O)C1)C(=O)CC(C1CCC1)C1CCC1`, the “% Inhibition” value is reported as -8% and the Z score is reported as 1.42.
`O=S(=O)(c1ccccc1Cl)N1CC(n2nccn2)C1` was tested, and the “% Inhibition” value was -29% and the Z score was 3.28.
In the case of `O=C(c1ccc(O)nc1)N1CCC[C@H]1c1nc2ccccc2s1`, the “% Inhibition” value is reported as -21% and the Z score is reported as 2.5.
For `COCCO[C@H]1[C@H](NC(=O)C(C)C)c2ccccc2C12CCN(C(=O)c1cccc(F)c1F)CC2`, the “% Inhibition” value was -10% and the Z score was 2.07.
With `O=S(=O)(N[C@@H]1COCC[C@@H]1OCC1CC1)c1ccc2c(c1)OCCO2` the “% Inhibition” value was -2% and the Z score was 0.28.
For `CC(=O)N1CCN(c2c(C)cnc3c2c(=O)n(CC(=O)Nc2ccc(F)cc2)c(=O)n3C)CC1`, the “% Inhibition” value was -3% and the Z score was 0.44.
`CCNC(=O)[C@H]1CCCN(c2nc3ncn(CC(=O)NC4CCCCC4)c(=O)c3s2)C1` was tested, and the “% Inhibition” value was -23% and the Z score was 2.07.
With `Cc1ccc(C)c2c(=O)c3c([nH]c12)CCN(CC(=O)Nc1ccccc1F)C3` the “% Inhibition” value was -12% and the Z score was 1.31.
`C[C@H](NC(=O)COCC(=O)Nc1ccccc1)c1ccccc1` was tested, and the “% Inhibition” value was 10% and the Z score was -1.21.
`O=C(NC[C@H]1CCCN1CC(F)F)Nc1ccn2ccnc2c1` was tested, and the “% Inhibition” value was -11% and the Z score was 1.34.
With `Cc1cnc(CN2CCCC[C@H]2C(=O)Nc2cc(F)cc(F)c2)cn1` the “% Inhibition” value was -16% and the Z score was 2.56.
`O=C(Nc1nc2c(s1)CN(C(=O)c1cc(-c3ccccc3)on1)CC2)c1cccs1` was tested, and the “% Inhibition” value was -26% and the Z score was 3.83.
In the case of `CN1c2cc(F)ccc2C(=O)NC12CCN(C(=O)NC1CCCCC1)CC2`, the “% Inhibition” value is reported as -7% and the Z score is reported as 0.9.
`CCc1nnc(NC2CCCCC2CO)nc1CC` (stereo unspecified) was tested, and the “% Inhibition” value was -8% and the Z score was 1.31.
For `CC(C)(NC(=O)CCc1ccsc1)c1nnc2n1CCCC2`, the “% Inhibition” value was -13% and the Z score was 1.68.
In the case of `COCCC1(NC(=O)C2CCOCC2)CCN(C(=O)[C@H](C)c2ccccc2)CC1`, the “% Inhibition” value is reported as -15% and the Z score is reported as 1.91.
For `CC(C)(C)OC(=O)N1CCC2(CC1)CC(C#N)C2`, the “% Inhibition” value was 30% and the Z score was -3.85.
For `Cc1nc2ccccn2c1CN(C)C(=O)[C@@H]1CCCN1S(C)(=O)=O`, the “% Inhibition” value was 16% and the Z score was -2.15.
In the case of `Cc1nn(C)c(Cl)c1C(=O)N(C)Cc1ccco1`, the “% Inhibition” value is reported as -6% and the Z score is reported as 0.73.
For `COC(=O)c1cc2n(n1)C[C@@](C)(C(=O)NC1CCC(C)CC1)N(c1cc(Cl)ccc1C)C2=O` (stereo partly specified), the “% Inhibition” value was 18% and the Z score was -2.09.
For `CCc1noc(C)c1Cn1nc(C(F)(F)F)ccc1=O`, the “% Inhibition” value was -2% and the Z score was 0.23.
In the case of `O=C(O)c1cc(N2CCC[C@H](c3ccn[nH]3)C2)nc2ccccc12`, the “% Inhibition” value is reported as -11% and the Z score is reported as 1.25.
For `O=C(C[C@@H]1NC(=O)N(Cc2ccc3c(c2)OCO3)C1=O)N1CCN(c2ccccn2)CC1`, the “% Inhibition” value was -2% and the Z score was 0.36.
In the case of `C[C@@H](Cc1ccncc1)NC(=O)c1ccncc1O`, the “% Inhibition” value is reported as -1% and the Z score is reported as 0.07.
In the case of `CC1CCN(S(=O)(=O)c2ccc(CNC(=O)c3ccc(F)cc3)s2)CC1`, the “% Inhibition” value is reported as -19% and the Z score is reported as 1.9.
In the case of `CC[C@H](C)[C@H](NC(=O)C1Cc2ccccc21)C(=O)O` (stereo partly specified), the “% Inhibition” value is reported as 3% and the Z score is reported as -0.66.
In the case of `CC1(C)COCCN1C(=O)c1cccc2[nH]ccc12`, the “% Inhibition” value is reported as 2% and the Z score is reported as -0.24.
In the case of `COc1ccc(OC)c(C(N2CCOCC2)N2CCOCC2)c1`, the “% Inhibition” value is reported as -2% and the Z score is reported as 0.43.
With `COc1cccc(NC(=O)c2cn(Cc3noc(C)n3)nn2)c1` the “% Inhibition” value was -1% and the Z score was 0.29.
With `CCN(CC)Cc1cnc2c(C(=O)N3C[C@@H](C)O[C@@H](C)C3)cnn2c1` the “% Inhibition” value was -16% and the Z score was 2.86.
For `Cc1ccc2c(c1)N(C(=O)c1ccc(OC(F)F)cc1)CCCO2`, the “% Inhibition” value was 0% and the Z score was -0.06.
With `Cn1ncc2ccc(C(=O)NC3CC3)cc21` the “% Inhibition” value was -19% and the Z score was 2.91.
For `C[C@@H](CO)Nc1ncc(Cl)cc1Cl`, the “% Inhibition” value was -9% and the Z score was 1.29.
With `COCCNC(=O)CCC(=O)NC1CCCC(C)C1C` (stereo unspecified) the “% Inhibition” value was -9% and the Z score was 0.93.
In the case of `O=C(Nc1cccnc1)c1ccc(-c2ccc(Cl)c(Cl)c2)o1`, the “% Inhibition” value is reported as 64% and the Z score is reported as -16.5.
`Cc1c[nH]c([C@H](C)NC(=O)c2n[nH]c(=O)c3ccccc23)n1` was tested, and the “% Inhibition” value was -2% and the Z score was 0.31.
In the case of `COCC(=O)Nc1cc(C(=O)N2C[C@@H](C)O[C@@H](C)C2)c2c(c1)ncn2Cc1ccc(F)cc1`, the “% Inhibition” value is reported as 14% and the Z score is reported as -1.76.
